Each structure is given as a SMILES string. Among all 50,000 compounds or so, about 800 (1.6%) showed an effect of 50% or more. The list shows a part of the results.

This assay has as its target Bcl-2-like protein 10 (Homo sapiens) (UniProt Q9HD36). Kind of assay: Phenotype converters, Bcl-B/TR3 peptide binding displacement, primary biochemical FP (AID 1240).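 Also: 0% = Bcl-B with tracer peptide and DMSO and 100% = tracer peptide lacking Bcl-B.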 As to conditions: GST-Bcl-B / FITC-TR3 peptide fluorescence polarization; stronger effect = higher value; compound at 3.75 mg/L.
UniProt Q9HD36, sequence (Q9HD36 whole entry, looked up): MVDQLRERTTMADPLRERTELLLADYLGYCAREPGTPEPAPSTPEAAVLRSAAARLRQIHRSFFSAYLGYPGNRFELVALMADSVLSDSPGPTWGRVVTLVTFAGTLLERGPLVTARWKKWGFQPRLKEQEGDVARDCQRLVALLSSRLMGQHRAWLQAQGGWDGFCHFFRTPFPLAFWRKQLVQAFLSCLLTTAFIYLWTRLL
As to `O=C(Cc1ccccc1)Nc1ccc2nn(-c3cccc4ccccc34)nc2c1`, the displacement was determined as 19.4%.
As for `C=CCc1cccc2cc(C(=O)Nc3ccc(Cl)c(Cl)c3)c(=O)oc12`, the displacement came to 1.4%.
`CCOCCP(=O)(c1ccccc1)c1ccccc1`: the displacement came to 16.9%.
The figure for `O=C(c1ccccc1)N1CC[C@H](O)[C@@H]2CCCC[C@H]21` is -9.8%; for `COc1ccc(Nc2ncnc3ccc(Br)cc23)cc1` it is 5.6%; for `O=C1NC(=O)N(c2ccccc2)C(=O)C1C(c1ccccc1)c1ccccc1` (stereo not given) it is -6.1%.
To `CN(C)/C=C1\C(=O)N(c2ccc([N+](=O)[O-])cc2)N=C1c1ccccc1` belongs -7.4%; to `CC(Sc1ccc(Cl)cc1)C(=O)O` (stereo not given), -9.1%.
To `COC(=O)c1c(C)oc2cc(Br)c(OC(=O)c3cccc([N+](=O)[O-])c3)cc12` belongs 8.8%.
Regarding `O=C(Nc1ccc(Cl)cc1)Nc1nnc(Cc2cccc(Br)c2)s1`, the displacement was determined as 16.6%.
With `CC(=O)Oc1ccc(N2C(=O)CC(Sc3ccccc3C(=O)O)C2=O)cc1` (stereo not given), the displacement is -5.1%.
On to `Cc1ccc(N2C(=O)NC(=O)/C(=C\c3ccc(I)cc3)C2=O)cc1`, for which the displacement was 8.2%.
The figure for `COCc1ccc(C(=O)Nc2ccccc2C(=O)O)o1` is -1.7%; for `O=C(/C=C/c1cccc([N+](=O)[O-])c1)Nc1cccc(NC(=O)c2ccccc2Cl)c1` it is -2.9%; for `CCOC(=O)c1cnn(-c2ccccc2)c1NC(=O)c1ccccc1` it is 2.4%.
The figure for `O=C(NCc1ccc2c(c1)OCO2)C(=O)Nc1cccc(Cl)c1Cl` is -2.3%; for `O=[N+]([O-])c1cccc(Nc2ncnc3ccccc23)c1` it is -3.2%.
The figure for `CC(C)C(=O)N1N=C(c2ccncc2)CC1(O)C(F)(F)F` (stereo not given) is -0.7%; for `COc1ccc(S(=O)(=O)Nc2cccc(C)c2)cc1OC` it is 7.1%.
As to `Oc1ccc(N=Cc2ccc(O)c(O)c2)cc1`, the displacement amounted to 31%.
The figure for `CCOc1ccc2c(c1)-c1c(ssc1=S)C(C)(C)N2C(=O)CC` is -9.8%; for `COc1ccc(NC(=O)C2=C(C)NC(=O)NC2c2ccc(Br)cc2)cc1` (stereo not given) it is 3.8%.
The figure for `Cc1c(C(N)=O)c(N)c(C(=O)c2ccccc2)n1-c1ccccc1` is -8.5%; for `COc1ccc(/C=C(/NC(=O)c2ccco2)C(=O)Nc2ccc(C(C)=O)cc2)cc1` it is -2.4%.
To `O=C(/C=C/c1cccc([N+](=O)[O-])c1)Nc1cccc(F)c1` belongs -1.2%; to `O=C(O)CC1S/C(=N\N=C\c2ccc([N+](=O)[O-])cc2)NC1=O` (stereo not given), -5.9%.
For the compound `O=S(=O)(NNc1ccccc1)c1ccc2ccccc2c1`, the displacement amounted to 15.7%.
To `COc1cccc(C(=O)Nc2ccc(S(=O)(=O)Nc3onc(C)c3C)cc2)c1` belongs -5.1%.
For the compound `NS(=O)(=O)c1ccc(N=C2NC(=O)CS2)cc1`, the displacement turned out to be 11.9%.
The figure for `COc1ccc(OCC(=O)Nc2cc(OC)cc(OC)c2)cc1` is -11.7%.
To `CCOC(=O)c1ccc(N2NC(=O)/C(=C/c3ccc(OCc4ccccc4)c(OC)c3)C2=O)cc1` belongs -1%.
The figure for `CCN1C(=O)/C(=C\c2ccccc2)C(C(=O)OC)=C1C` is -23.3%; for `O=c1cc(-c2ccc(Br)cc2)oc2ccccc12` it is -12.5%; for `O=C(Nc1ccc(Cl)c(Cl)c1)Nc1nnc(-c2ccccc2Br)s1` it is 19.1%.
Turning to `COc1ccc(N(CC(=O)Nc2cccc(Cl)c2)S(C)(=O)=O)c(OC)c1`, the displacement amounted to 15.1%.
Consider `CCOc1cc(C=C2C(=O)NC(=S)NC2=O)ccc1OCCSc1cccc2ccccc12`, for which the displacement was -11.7%.
The figure for `COc1cccc(N(CC(=O)Nc2ccc(OC)cc2OC)S(=O)(=O)c2ccccc2)c1` is -9%; for `O=C(O)CCN1C(=O)/C(=C/c2cccc(OCc3ccccc3)c2)SC1=S` it is 11.9%; for `COc1ccc(C(=O)Nc2ccccc2C(N)=O)cc1[N+](=O)[O-]` it is 11.1%.
To `COc1ccc(N2C(=O)/C(=C\c3cccc(OC)c3O)SC2=S)cc1` belongs 11.8%; to `Cc1ccc(/C=N/N=C(c2ccccc2)c2ccccc2)o1`, 9.9%; to `COc1ccc(NC(=O)c2ccc(N3C(=O)CCC3=O)cc2)cc1`, 8.7%.
For `Nc1nc(Nc2nc(N3CCCC3)cc(C(F)(F)F)n2)cc(C(F)(F)F)n1`, the displacement turned out to be 12%.
The figure for `O=C(O)CN1C(=O)/C(=C\c2cccc(Cl)c2Cl)SC1=S` is 3%.
To `CCOc1ccccc1NC(=O)C1C(c2ccccc2)C1(Cl)Cl` (stereo not given) belongs 1.9%; to `COc1ccc(Br)cc1/C=N/NC(=O)C1CC(c2ccccc2)(c2ccccc2)C1`, -0.1%.
The figure for `CCOc1cccc2c1NC(C)(C)C(=S)C2=C1SC(C(=O)OC)=C(C(=O)OC)S1` is 30.6%.
On to `Cc1c(NC(=O)c2ccc(I)cc2[N+](=O)[O-])c(=O)n(-c2ccccc2)n1C`, for which the displacement is 3.9%.
To `Cc1ccc2nsnc2c1NC(=O)c1ccccc1F` belongs -2.1%; to `CCOC(=O)CN1C(=O)/C(=C2\SC(=S)N(c3ccccc3)C2=O)c2ccccc21`, -12.6%.
The figure for `CCC(CC)C(=O)N1c2ccc(F)cc2CCC1C` (stereo not given) is 2.8%; for `CCc1cccc(C)c1NC(=O)C(C(C)C)N1C(=O)c2ccccc2C1=O` (stereo not given) it is 0.6%.
As for `O=C(COc1ccccc1[N+](=O)[O-])Nc1ccc(Cl)c(-c2nc3cc(Cl)ccc3o2)c1`, the displacement amounted to 47.6%.
To `CCOC(=O)C(=CNc1ccc(Nc2ccccc2)cc1)C(=O)OCC` belongs -2.5%.
The figure for `COC(=O)Nc1sc2c(c1C(N)=O)CCC(C(C)(C)C)C2` (stereo not given) is 10.7%; for `COc1ccc(C(=O)Cn2c(NCCO)nc3ccccc32)cc1` it is 9.2%.
The figure for `CCN1C(=O)C(=Cc2ccc(-c3cccc(C(=O)O)c3)o2)C(=O)N(CC)C1=S` is 11.4%.
For the compound `O=c1oc(-c2ccc(Br)cc2)nc2cc(Cl)ccc12`, the displacement is -4.5%.
The figure for `CC(=O)COc1ccc2c(C)cc(=O)oc2c1C` is -13.5%; for `COCCc1nnc(NC(=O)Nc2ccccc2)s1` it is 2.8%; for `COc1ccc2oc(=O)c(C(=O)Nc3ccc(C)c(Cl)c3)cc2c1` it is -16%.
To `COc1ccc2c(c1OC)C(=O)OC2Nc1cc(S(N)(=O)=O)ccc1O` (stereo not given) belongs 3.9%; to `Cc1cccc(NCc2cccc([N+](=O)[O-])c2)c1`, 9%.
In the case of `Cc1n[nH]c(C)c1CCCOc1ccc(Cl)cc1`, the displacement amounted to 10%.
The figure for `O=C(NCCN1CCOCC1)c1ccc(Cl)cc1[N+](=O)[O-]` is -2.4%.
To `CCOC(=O)Nc1nc2ccc(S(C)(=O)=O)cc2s1` belongs -2.7%; to `Cc1ccc(C)c(NC(=S)NC(NC(=O)c2ccccc2F)C(Cl)(Cl)Cl)c1` (stereo not given), 14.7%; to `Cc1ccc(N(C(=O)Nc2ccccc2)C2C=CS(=O)(=O)C2)cc1C` (stereo not given), -0.9%.
To `Cn1c(=O)c2c(ncn2CC(=O)Nc2nc3ccccc3s2)n(C)c1=O` belongs 5.4%; to `O=[N+]([O-])c1cnc(Nc2cccc3nsnc23)c([N+](=O)[O-])c1`, 2.4%.

The record behind these values is PubChem BioAssay AID1240 (Sanford-Burnham Center for Chemical Genomics, 2008).
